Test results: a collection of fitness landscapes (doi:10.1126/science.1257360)
This is one part of the list.

B1: PhoQ; a variant is named by its letters at X, in order, P23837 (parent)
chain: MKKLLRLFFPLSLRVRFLLATAAVVLVLSLAYGMVALIGYSVSFDKTTFRLLRGESNLFYTLAKWENNKLHVELPENIDKQSPTMTLIYDENGQLLWAQRDVPWLMKMIQPDWLKSNGFHEIEADVNDTSLLLSGDHSIQQQLQEVREDDDDAEMTHSVAVNVYPATSRMPKLTIVVVDTIPVELKSSYMVWSWFIYVLSANLLLVIPLLWVAAWWSLRPIEALAKEVRELEEHNRELLNPATTRELTSLVRNLNRLLKSERERYDKYRTTLTDLTHSLKTPLXXLQXXLRSLRSEKMSVSDAEPVMLEQISRISQQIGYYLHRASMRGGTLLSRELHPVAPLLDNLTSALNKVYQRKGVNISLDISPEISFVGEQNDFVEVMGNVLDNACKYCLEFVEISARQTDEHLYIVVEDDGPGIPLSKREVIFDRGQRVDTLRPGQGVGLAVAREITEQYEGKIVAGESMLGGARMEVIFGRQHSAPKDE

Variants of: B1
Assay: enrichment ratio after two sorts for PhoP signalling (ratio (wild type AVST 3.29)); higher = more functional
Conditions: with PhoP (E. coli)

Variant | enrichment ratio
DQIM | ≤ 0.25
AWFK | ≤ 0.25
HHPG | ≤ 0.25
MSKP | ≤ 0.25
HHAC | ≤ 0.25
VSND | ≤ 0.25
IWCN | ≤ 0.25
QPEF | ≤ 0.25
VTYT | ≤ 0.25
MFQY | ≤ 0.25
KCCT | ≤ 0.25
ESCF | ≤ 0.25
PFLW | ≤ 0.25
KDCS | ≤ 0.25
SEDE | ≤ 0.25
YPEK | ≤ 0.25
SQPA | ≤ 0.25
SSID | ≤ 0.25
YETT | ≤ 0.25
HKPH | ≤ 0.25
PSCW | ≤ 0.25
KSNW | ≤ 0.25
KYFP | ≤ 0.25
QGGV | 8.5
KSYR | ≤ 0.25

Variant | enrichment ratio
MMNV | ≤ 0.25
EGIE | ≤ 0.25
MYKK | ≤ 0.25
QIHK | ≤ 0.25
YWWG | ≤ 0.25
MVMK | ≤ 0.25
PPTR | ≤ 0.25
STGK | ≤ 0.25
NTDA | ≤ 0.25
GSKN | ≤ 0.25
IAEP | ≤ 0.25
IFWD | ≤ 0.25
FCMV | 6.72
IIYI | ≤ 0.25
SSFR | ≤ 0.25
HNSE | ≤ 0.25
YQGG | ≤ 0.25
HPFN | ≤ 0.25
EFHQ | ≤ 0.25
YVYV | ≤ 0.25
SSHN | ≤ 0.25
KSQK | ≤ 0.25
THFF | ≤ 0.25
SYLE | ≤ 0.25
DQPH | ≤ 0.25

Variant | enrichment ratio
LRSI | ≤ 0.25
WLYN | ≤ 0.25
MSTF | ≤ 0.25
FFPR | ≤ 0.25
LQLF | ≤ 0.25
VHPH | ≤ 0.25
MQHK | ≤ 0.25
YKIT | ≤ 0.25
SCML | 11.2
ISWK | ≤ 0.25
YNQS | ≤ 0.25
QAYH | ≤ 0.25
YARR | ≤ 0.25
TGQN | 8.68
VAPE | ≤ 0.25
TTVC | 1.8
RYDW | ≤ 0.25
NNWS | ≤ 0.25
QDIS | ≤ 0.25
LRAC | ≤ 0.25
YDRP | ≤ 0.25
MDCV | ≤ 0.25
YNWR | ≤ 0.25
YRIM | ≤ 0.25
MFWH | ≤ 0.25

Variant | enrichment ratio
DWGE | ≤ 0.25
FTCK | ≤ 0.25
YCVI | ≤ 0.25
YRRP | ≤ 0.25
APMW | ≤ 0.25
ILML | ≤ 0.25
VQVF | ≤ 0.25
KHPK | ≤ 0.25
GCSH | ≤ 0.25
TEMV | 20.2
DEMF | ≤ 0.25
VNKF | ≤ 0.25
FLNM | ≤ 0.25
TCYI | 1.36
MREH | ≤ 0.25
DRMY | ≤ 0.25
AFHH | ≤ 0.25
EHCG | ≤ 0.25
KHGL | ≤ 0.25
PPHL | ≤ 0.25
VTAH | ≤ 0.25
MQCL | 1.47
FYRH | ≤ 0.25
WTHT | ≤ 0.25
HRFE | ≤ 0.25

Variant | enrichment ratio
YSNR | ≤ 0.25
KSRR | ≤ 0.25
DIGY | ≤ 0.25
DFLK | ≤ 0.25
MACF | ≤ 0.25
VSTG | ≤ 0.25
SYYY | ≤ 0.25
ASAW | ≤ 0.25
HRGI | ≤ 0.25
ANKL | ≤ 0.25
AIYC | 0.353
MFKL | ≤ 0.25
ATAM | ≤ 0.25
AGIW | ≤ 0.25
PIPY | ≤ 0.25
HQET | ≤ 0.25
TKFA | ≤ 0.25
DCNE | ≤ 0.25
PVVW | ≤ 0.25
SSQW | ≤ 0.25
YWRD | ≤ 0.25
ASRM | ≤ 0.25
DPRW | ≤ 0.25
AWKG | ≤ 0.25
HQDH | ≤ 0.25

Variant | enrichment ratio
MSYF | 6.68
AIAC | 19.1
WSNM | ≤ 0.25
FPGF | ≤ 0.25
SFNN | ≤ 0.25
NHNK | ≤ 0.25
RHVK | ≤ 0.25
YTSY | ≤ 0.25
KQLA | ≤ 0.25
NWMI | ≤ 0.25
HAWY | ≤ 0.25
MGQH | ≤ 0.25
DQMT | ≤ 0.25
VWNY | ≤ 0.25
RHFN | ≤ 0.25
HLAW | ≤ 0.25
PILF | ≤ 0.25
KGVV | ≤ 0.25
KRES | ≤ 0.25
SDIR | ≤ 0.25
QETF | ≤ 0.25
MALD | ≤ 0.25
YQVW | ≤ 0.25
GKFA | ≤ 0.25
KNYL | ≤ 0.25

Variant | enrichment ratio
MDLS | ≤ 0.25
QFKS | ≤ 0.25
FGWH | ≤ 0.25
YARV | ≤ 0.25
LTCH | ≤ 0.25
WVVY | ≤ 0.25
ASAQ | 4.22
MEPN | ≤ 0.25
RKDS | ≤ 0.25
YVCN | ≤ 0.25
EPII | ≤ 0.25
PTMF | ≤ 0.25
KYFT | ≤ 0.25
VPRS | ≤ 0.25
NRTN | ≤ 0.25
PVYM | ≤ 0.25
HQHT | ≤ 0.25
AAMQ | ≤ 0.25
RIQA | ≤ 0.25
DRFG | ≤ 0.25
HFTF | ≤ 0.25
YIWC | ≤ 0.25
FSYF | ≤ 0.25
IRLC | ≤ 0.25
YDEN | ≤ 0.25

Variant | enrichment ratio
DKLG | ≤ 0.25
KLHF | ≤ 0.25
MEPG | ≤ 0.25
SNWW | ≤ 0.25
WDPF | ≤ 0.25
LDFS | ≤ 0.25
GDSL | ≤ 0.25
TINN | 12.6
ILWF | ≤ 0.25
IAMM | 13.5
FSHS | ≤ 0.25
QCYR | ≤ 0.25
QDVV | ≤ 0.25
TESW | 2.87
SHYI | ≤ 0.25
PCRG | ≤ 0.25
LHND | ≤ 0.25
ERMV | ≤ 0.25
WKSS | ≤ 0.25
HSHA | ≤ 0.25
